Test results taken from PubChem BioAssay AID1030 (National Center for Advancing Translational Sciences (NCATS), 2008).
Where “and” joins values, the source holds several entries; their conditions need not be identical. Equal values may be shown once. The whole screen tested about 220,000 compounds, of which about 16,000 (7.3%) were called active. Inconclusive results, whose numbers are uncertain, are shown with a selection of clear calls. Calls follow the shape of the dose curve; as a rule, active = well fitted inhibition curve with a large enough effect (not every such curve was filed as active); inconclusive = small, poorly fitted or top-dose-only effect, or another doubt; inactive = no such curve, though single readings can be large or run the other way. Where the call is inconclusive, the potency comes from a doubtful curve fit.

Biological target: Aldehyde dehydrogenase 1A1 (Homo sapiens) (UniProt P00352)
Sequence of UniProt P00352 (P00352 whole entry, looked up): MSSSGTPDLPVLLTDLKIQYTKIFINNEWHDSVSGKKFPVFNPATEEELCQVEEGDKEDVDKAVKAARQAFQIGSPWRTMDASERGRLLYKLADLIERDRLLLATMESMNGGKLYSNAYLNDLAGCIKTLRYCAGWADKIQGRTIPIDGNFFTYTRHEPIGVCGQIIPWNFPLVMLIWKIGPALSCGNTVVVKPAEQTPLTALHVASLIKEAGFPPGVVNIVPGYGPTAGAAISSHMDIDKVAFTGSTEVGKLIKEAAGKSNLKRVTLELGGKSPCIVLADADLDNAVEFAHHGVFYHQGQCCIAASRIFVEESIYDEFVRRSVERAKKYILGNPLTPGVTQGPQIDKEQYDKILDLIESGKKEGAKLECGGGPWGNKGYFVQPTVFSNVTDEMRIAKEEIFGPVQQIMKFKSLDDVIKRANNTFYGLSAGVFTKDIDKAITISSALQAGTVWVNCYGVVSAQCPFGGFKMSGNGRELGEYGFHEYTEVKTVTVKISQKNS
Assay: qHTS Assay for Inhibitors of Aldehyde Dehydrogenase 1 (ALDH1A1)
Conditions: Purified ALDH1A1, NADH fluorescence, propionaldehyde substrate; series mostly up to 75.3 µM
Potency is read from the fitted curve at half-maximal effect; tags tell the direction and shape of the fitted curve.

SMILES | Potency
O=c1c2ccccc2nc2c3ccccc3c(NCCN3CCOCC3)nn12 | inconclusive: 28.2 µM [inhibitor, partial curve]
COc1ccc(-c2csc(NC(=O)COc3ccc(N(C)S(=O)(=O)c4ccc(C)cc4)cc3)n2)cc1 | inactive
CCCC(=O)Nc1ccc(Br)c(Cl)c1 | inconclusive: 39.8 µM [inhibitor, single point]
CCC(c1nnnn1Cc1ccco1)N(CCc1ccccc1)Cc1cc2cc(C)ccc2[nH]c1=O (configuration not stated) | active: 25.1 µM
CCOc1ccc2c(C)c(C(=O)O)oc2c1OCC | inconclusive: 28.2 µM [inhibitor, partial curve]
CSc1ccc(CN(C)CC(=O)Nc2c(F)cccc2F)cc1 | inconclusive: 22.4 µM [inhibitor, single point]
O=C(Nc1ccn(-c2ccccc2)n1)c1ccc(Cl)cc1 | inactive
N#CC1=C(N)OC2=C(C(=O)CCC2)[C@]12C(=O)N(CC(N)=O)c1ccccc12 | inactive
COc1ccc(S(=O)(=O)NCCc2c(C)nn(C)c2Oc2ccccc2)cc1 | active: 0.631 µM
O=C(Nc1ccc(Cl)cc1)/C(=C/c1ccc([N+](=O)[O-])cc1)c1nc2ccccc2s1 | inactive
Nc1ccc(O)c(C(=O)O)c1 | inconclusive: 8.91 µM [inhibitor, single point] and inconclusive: 15 µM [inhibitor, partial curve]
CCCOC(=O)c1ccc(Oc2cn[nH]c2-c2ccc(OCC)cc2O)cc1 | inactive
Fc1ccc(NC(=S)Nc2ccccc2N2CCOCC2)cc1Cl | inactive
O=C(O)C(C(=O)/C=C/c1ccco1)=C1SCCS1 | active: 12.6 µM
COCCN(C(=S)Nc1ccc(C)cc1C)C(C)c1ccco1 (configuration not stated) | inactive
Cc1cccc(-n2c(CNC(=O)c3ccc(S(=O)(=O)N4CCCC4)cc3)n[nH]c2=S)c1 | inconclusive: 22.4 µM [inhibitor, partial curve]
N#Cc1cc2c(nc1SCC(=O)N1CCOCC1)CCCCC2 | inconclusive: 39.8 µM [inhibitor, single point]
COc1ccc(Oc2ncc3nc(-c4ccc(F)cc4)c(=O)n(C)c3n2)cc1 | inconclusive: 4.47 µM [inhibitor, partial curve]
Clc1ccc(C2[C@H]3CN(Cc4cccnc4)[C@H](c4ccccc4)C34CC2(c2cccnc2)C4)cn1 (some centres not stated) | inconclusive: 39.8 µM [inhibitor, single point]
c1ccc(CN(Cc2ccco2)C(c2ccncc2)c2nnnn2C2CCCC2)cc1 (configuration not stated) | inconclusive: 35.5 µM [inhibitor, single point]
C/C(=C\C(=O)c1ccccc1)NNc1nc2ccccc2s1 | inconclusive: 3.55 µM [inhibitor, single point]
CC(NCC1(N2CCOCC2)CCCCC1)C(=O)N1CCc2ccccc21 (configuration not stated) | inactive
CCN(CCCNS(=O)(=O)c1ccc2c(c1)CCN2C(C)=O)c1cccc(C)c1 | inconclusive: 35.5 µM [inhibitor, single point]
Cc1cccn2c(=O)c(C=O)c(N3CCCCCC3)nc12 | active: 11.2 µM

SMILES | Potency
COc1cccc(-c2ccc(=O)n(CC(=O)Nc3cc4c(cc3NC(C)=O)OCCO4)n2)c1 | inactive
Cc1ccc2c(c1)-c1c(cnn1CC(=O)NC(C)CCc1ccco1)CO2 (configuration not stated) | inconclusive: 28.2 µM [inhibitor, single point]
O=C(CNC(=O)C(c1ccccc1)c1ccccc1)OCC(=O)c1cccs1 | inconclusive: 39.8 µM [inhibitor, single point]
COc1cc(C(=O)Nc2nnc(C(C)(C)C)s2)c([N+](=O)[O-])cc1OC | inconclusive: 25.1 µM [inhibitor, single point]
Cc1ccc(Cn2nnc3c(=O)[nH]c(C4CCN(S(=O)(=O)c5cc(C)ccc5C)CC4)nc32)cc1 | inactive
CC(Nc1cccc2ccccc12)C(=O)N/N=C/c1ccc([N+](=O)[O-])cc1 (configuration not stated) | inconclusive: 22.4 µM [inhibitor, single point]
Fc1ccc(CSc2nnc(-c3cnccn3)n2Cc2ccco2)cc1 | inactive
COc1ccc(-c2cn3cc(C(=O)NN)ccc3n2)cc1 | inconclusive: 31.6 µM [inhibitor, partial curve]
COC(=O)/C=c1/sc2n(c1=O)CCN=2 | inconclusive: 39.8 µM [inhibitor, single point]
CCc1c(C)nc2ncnn2c1NCCc1ccc(Cl)cc1 | inconclusive: 39.8 µM [inhibitor, single point]
CCC(C)(C)NC(=O)C(c1cccn1C)N(C(=O)Cn1nnc2ccccc21)c1ccc(OC)cc1OC (configuration not stated) | active: 11.2 µM
CN(C(=O)COC(=O)c1cc(NS(=O)(=O)c2cc([N+](=O)[O-])ccc2Cl)ccc1O)C1CCCCC1 | inconclusive: 25.1 µM [inhibitor, partial curve]
Clc1ccc2noc(-c3ccccc3)c2c1 | inconclusive: 39.8 µM [inhibitor, single point]
CCOC(=O)C1=C(C)Nc2nc(SCC)[nH]c(=O)c2C1c1ccncc1 (configuration not stated) | inconclusive: 39.8 µM [inhibitor, single point]
CCC(C)(C)NC(=O)CN(Cc1cccs1)C(=O)C(=O)Nc1ccc2c(c1)OCCO2 | inconclusive: 39.8 µM [inhibitor, single point]
COc1ccc(-c2cc(=Nc3c(C)n(C)n(-c4ccccc4)c3=O)c3ccccc3o2)cc1 | inconclusive: 29.9 µM [inhibitor, partial curve]
Cc1ccc(N2C(=O)CC(Nc3ccc(Cl)c(S(=O)(=O)N(C)C)c3)C2=O)c(C)c1 (configuration not stated) | inconclusive: 35.5 µM [inhibitor, single point]
COc1ccc(/C=N/Nc2c(Cl)cc(Cl)cc2Cl)cc1CN1CCOCC1 | inactive
O=C(Nc1ccc(Cl)cc1)N1CCN(c2ccccc2)CC1 | inactive
Cc1cccc(C)c1NC(=S)N/N=C/c1ccc(OCCC(C)C)cc1 | inactive
Cc1ccc2oc3c(c(=O)c2c1)C(c1cccc(O)c1)N(c1ccccn1)C3=O (configuration not stated) | inconclusive: 3.55 µM [inhibitor, partial curve]
O=C(Nc1cccnc1)c1sc(Nc2ccccc2)nc1-c1ccccc1 | inconclusive: 31.6 µM [inhibitor, partial curve]
CCCCCNC(=O)C1CC(=O)OC12CCCCC2 (configuration not stated) | inactive
COc1ccc(N2C(=O)CC(N(CCc3ccccc3)C(=O)/C=C/C(=O)O)C2=O)cc1 (configuration not stated) | inconclusive: 39.8 µM [inhibitor, single point]

SMILES | Potency
COc1ccc(CCN2C(=O)CC(NNC(=O)c3ccccc3Br)C2=O)cc1 (configuration not stated) | inactive
O=C1c2oc3ccccc3c(=O)c2C(c2cccc(F)c2)N1CCCO (configuration not stated) | active: 14.1 µM
CC(On1c(-c2ccccc2)nc2ccc(Cl)cc21)C(=O)O (configuration not stated) | inconclusive: 20 µM [inhibitor, single point]
COc1ccccc1CNC(=O)CN1CCC(NC(=O)c2ccccc2F)CC1 | inconclusive: 31.6 µM [inhibitor, single point]
CO[C@@H](CCO)C[C@H]1O[C@H](C(=O)OC(C)C)CC[C@@H]1C | inactive
Cc1ccc(C(=O)/C=C/c2cn(CN3CCN(C)CC3)c3ccccc23)cc1 | inconclusive: 39.8 µM [inhibitor, single point]
O=C(c1ccncc1)N1CCC2(CC1)CN(c1cccc(-c3ccccc3)c1)C2 | inconclusive: 39.8 µM [inhibitor, single point]
O=C(O)c1cn(C2CC2)c2cc(N3CCN(S(=O)(=O)c4ccc5c(c4)OCCO5)CC3)c(F)cc2c1=O | inconclusive: 31.6 µM [inhibitor, partial curve]
O=C(CN1CCN(C2CCCCC2)CC1)NCCC1=CCCCC1 | inactive
COc1ccc(CCNC(=O)COC(=O)CCC(=O)c2ccc(F)cc2)cc1 | inactive
CCSc1nc(CC)c2c(c1C#N)CCCC2 | inactive
CN(C)CCCNC(=O)c1ccc(Cl)c(S(=O)(=O)N(C)c2ccccc2)c1 | inactive
CCOC(=O)c1c(NC(=O)c2cccs2)sc(CC)c1-c1cccs1 | inconclusive: 31.6 µM [inhibitor, partial curve]
COCCN1Cc2cccc(C(=O)NC3CCCCCC3)c2C1=O | inconclusive: 22.4 µM [inhibitor, partial curve]
Cc1ccc(-c2noc(-c3ccccc3C(=O)N3CCN(C)CC3)n2)cc1 | inconclusive: 44.7 µM [inhibitor, single point]
Cc1ccnc(N2CCN(C(=O)CSc3nc4ccccc4nc3N3CCCCC3)CC2)c1 | inconclusive: 35.5 µM [inhibitor, single point]
CCOC(=O)c1ccc(NC(=O)N2CCN(c3ccccc3OC)CC2)cc1 | inactive
CN(CC(=O)NCCc1ccc(S(N)(=O)=O)cc1)c1ccccc1 | inactive
CCC(C)(C)n1nnnc1C(c1cccnc1)N1CCCc2ccccc21 (configuration not stated) | inconclusive: 12.6 µM [inhibitor, partial curve]
CCOC(=O)c1ccc(NC(=O)COc2ccccc2CNCCc2ccccc2)cc1 | inconclusive: 17.8 µM [inhibitor, partial curve]
CCCCn1c(O)c(N=NC(=O)Cn2c(C(F)(F)F)nc3ccccc32)c2ccccc21 | active: 4.47 µM
Cc1cc(-n2c(C)cc(C(=O)CN3C(=O)NC4(CCCCC4)C3=O)c2C)no1 | inactive
COc1cccc(C2C(C(=O)Nc3cccnc3)=C(C)Nc3nnnn32)c1OC (configuration not stated) | inconclusive: 25.1 µM [inhibitor, single point]
COC(=O)C1=C(CN2CCc3ccccc32)NC(=O)NC1c1cc(C)ccc1C (configuration not stated) | inconclusive: 39.8 µM [inhibitor, single point]
